Experiment [1] has as its target T1, hPD1 (Acro Biosystems), SPR analyte (human, UniProt Q15116 in part).
T1 construct: also called human PD1 kinetics
Description: SPR (Biacore), antibody captured by anti-Fc, hPD1 as analyte, 25 C. How it is done:
(§1) Anti-Fc polyclonal antibodies were immobilized onto a CMS chip (GE Life Sciences) using amine coupling chemistry (from Amine Coupling Kit, GE Life Sciences). The immobilization steps were carried out at a flow rate of 25 μl/min in 1×HBS-EP+buffer (GE Life Sciences; 10× Stock diluted before use). The sensor surfaces were activated for 7 min with a mixture of NHS (0.05 M) and EDC (0.2 M). The Anti-Fc antibodies were injected over all 4 flow cells at a concentration of 25 ug/ml in 10 mM sodium acetate, pH 4.5, for 7 min. Ethanolamine (1 M, pH 8.5) was injected for 7 min to block any remaining activated groups. An average of 12,000 response units (RU) of capture antibody was immobilized on each flow cell.
(§2) Kinetic binding experiments were performed at 25° C. using 1×HBS-EP+buffer. Test and control antibodies were injected over the anti-Fc surface at concentrations of 5-10 μg/mL for 12 seconds at a flow rate of 10 μl/min on flow cells 2, 3 and 4, followed by a buffer wash for 30 seconds at the same flow rate. Kinetic characterization of antibody samples was carried out with a dilution series of antigen and 1 injection of 0 nM antigen. After capturing ligand (antibody) on the anti-Fc surface, the analyte (hPD1 or hLAG3, Acro Biosystems, Newark, Del.) was bound at 100, 25, 6.25 and 0 nM for 180 seconds, followed by a 450 second dissociation phase at a flow rate of 50 μl/min. Between each ligand capture and analyte binding cycle, regeneration was carried out using 2 injections of 10 mM Glycine pH 2.0 for 30 seconds at 30 μL/min, followed by a 30 second buffer wash step.
(§3) The data was fit with the Biacore T200 Evaluation software, using a 1:1 Langmuir binding model. KD (affinity, nM) was determined as a ratio of the kinetic rate constants calculated from the fits of the association and dissociation phases.
A general note: In SPR one partner is held on a chip, and binding of the other changes the refractive index at the surface.

Experiment [2] deals with T1, hPD1 (Acro Biosystems), SPR analyte. The experiment is described as above. As to the method:
as §1
Kinetic binding experiments were performed at 25° C. using 1×HBS-EP+buffer. Test and control antibodies were injected over the anti-Fc surface at concentrations of 5-10 μg/mL for 12 seconds at a flow rate of 10 μl/min on flow cells 2, 3 and 4, followed by a buffer wash for 30 seconds at the same flow rate. Kinetic characterization of antibody samples was carried out with a dilution series of antigen and 1 injection of 0 nM antigen. […]
as §3
The source holds these as a separate data set.

In experiment [3] the target is T2, hLAG3 (Acro Biosystems), SPR analyte (human, UniProt P18627 23-450).
T2 construct: also called human LAG3 kinetics
T2 sequence: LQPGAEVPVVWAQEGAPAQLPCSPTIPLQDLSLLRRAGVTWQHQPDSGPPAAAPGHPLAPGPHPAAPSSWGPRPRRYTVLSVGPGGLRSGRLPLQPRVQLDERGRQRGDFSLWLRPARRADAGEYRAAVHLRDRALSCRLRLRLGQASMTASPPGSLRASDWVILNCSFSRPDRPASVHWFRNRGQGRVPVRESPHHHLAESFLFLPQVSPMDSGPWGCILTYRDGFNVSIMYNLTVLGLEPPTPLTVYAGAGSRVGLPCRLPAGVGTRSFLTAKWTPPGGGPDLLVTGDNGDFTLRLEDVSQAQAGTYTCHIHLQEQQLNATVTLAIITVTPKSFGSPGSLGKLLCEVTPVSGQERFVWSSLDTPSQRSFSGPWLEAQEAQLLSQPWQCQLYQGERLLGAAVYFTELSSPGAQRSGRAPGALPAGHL
Briefly: SPR (Biacore), antibody captured by anti-Fc, hLAG3 as analyte, 25 C. How it is done:
as §1, §2, §3

For experiment [4], the target named is PD-1 (residues 1-199) C-terminally fused to the beta-galactosidase enzyme acceptor (EA) fragment, on U2OS … (human, UniProt Q15116 in part). Briefly: cell-based or functional assay.
In experiment [5] the target is LAG3 (residues 1-477) C-terminally fused to the beta-galactosidase ProLink (PK) fragment, on U2OS cells (human). Description: cell-based or functional assay.
The target of experiment [6] is T3, rabbit Fc-tagged recombinant human PD1 (rhPD1-rabbit Fc) (human, UniProt Q15116 in part, limits assumed).
T3 construct: also called recombinant human PD-1 protein
Description: flow cytometry competition: inhibition of rhPD1-rabbit Fc binding to human PD-L2 on CHO cells; PE anti-rabbit IgG detection. How it is done: CHO-k cells stably expressing human PD-L1 or PD-L2 were used to measure the ability of anti-PD1/LAG3 bi-specific antibody constructs to block rabbit Fc-tagged recombinant human PD1 (rhPD1-rabbit Fc) protein binding. Cells were seeded at 100,000 cells/well in 100 μL of FACS buffer in 96-well polypropylene plates. The cells were centrifuged and resuspended with test antibodies (2× concentration) diluted in FACS buffer, immediately followed by equal volume of rhPD1-rabbit Fc (added at 2× concentration; 0.2 ng/mL and 0.1 ng/mL final for PD-L1 and PD-L2, respectively). Cells were incubated on ice for 1 hour and washed twice. rhPD1-rabbit Fc binding on CHO-human PD-L1 or PD-L2 cells was detected with R-Phycoerythrin AffiniPure F(ab′)₂ Fragment Goat Anti-Rabbit IgG (H+L) (1:200 dilution, Jackson ImmunoResearch) for 30 minutes. The cells were washed twice with FACS buffer, fixed in 4% paraformaldehyde in PBS for 20 mins on ice in the dark, washed twice with FACS buffer, and analyzed using the BD LSR II Flow Cytometer. Data were analyzed using FlowJo (FlowJo, LLC; Ashland, Oreg.) to determine mean fluorescence intensities. Prism 6 software was used to create one site, specific binding with Hill slope curves (Log transform) to determine IC₅₀ values.

Read-outs that look alike come from different tables or passages of the source.

T1 sequence (Q15116 25-167 limits assumed): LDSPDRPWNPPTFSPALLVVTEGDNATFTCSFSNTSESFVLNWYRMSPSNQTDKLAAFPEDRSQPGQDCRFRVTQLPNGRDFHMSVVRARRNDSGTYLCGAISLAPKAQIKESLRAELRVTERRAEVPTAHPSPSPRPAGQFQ

B1: PD-1/LAG3 Bi-specific Construct A: aPD1 1353-G10 scFv_zwB × aLAG3 Fab_zwA (bispecific antibody, human IgG1, kappa)
scFv: MEVQLVQSGAEVKKPGASVKVSCKASGYRFPHYGISWVRQAPGQGLEWMGWISAYNGNTNYAQKLQGRVTMTTDTSTNTAYMELRSLRSDDTAVYYCARDVDYGTGSGYWGQGTLVTVSSGGGGSGGGGSGGGGSSYELTQPPSVSVSPGQTARITCSGDALPKQYAYWYQQKPGQAPVMVIYKDTERPSGIPERFSGSSSGTKVTLTISGVQAEDEADYYCQSADNSITYRVFGGGTKVTVLAAGSDQ[no letters for human IgG1 Fc with changes]
heavy: MQVQLVESGGGVVQPGRSLRLSCAASGFTFSSYGMHWVRQAPGKGLEWVAVIWYDGSYKYYADSVKGRFTISRDNSKNTLYLQMNSLRAEDTAVYYCAREEAPENWDYALDVWGQGTTVTVSSASTKGPSVFPLAPSSKSTSGGTAALGCLVKDYFPEPVTVSWNSGALTSGVHTFPAVLQSSGLYSLSSVVTVPSSSLGTQTYICNVNHKPSNTKVDKKVEPKSCDKTHTCPPCPAPELLGGPSVFLFPPKPKDTLMISRTPEVTCVVVDVSHEDPEVKFNWYVDGVEVHNAKTKPREEQYNSTYRVVSVLTVLHQDWLNGKEYKCKVSNKALPAPIEKTISKAKGQPREPQVYVYPPSREEMTKNQVSLTCLVKGFYPSDIAVEWESNGQPENNYKTTPPVLDSDGSFALVSKLTVDKSRWQQGNVFSCSVMHEALHNHYTQKSLSLSPGK
light: [no letters for about 100 residues][no letters for about 120 residues]
notes: also called 1449-G09.2-Fab-zwA
For the molecule B1, the Kd stood at 1.52 nM in experiment [1], 1.52 nM in experiment [2] and 0.0845 nM in experiment [3]. In addition, the koff is 0.000849 s⁻¹ in experiment [1], 0.000849 s⁻¹ in experiment [2] and 0.000102 s⁻¹ in experiment [3]. Besides, the values for the kon in experiment [1] and in experiment [3] were 559000 M⁻¹ s⁻¹ and 1.21e+06 M⁻¹ s⁻¹, respectively. In addition, the “PxL cell bridging EC50 (beta-galactosidase complementation, U2OS cells)” value in experiment [4] and in experiment [5] was 0.6 nM each time. Also, in experiment [6], the IC50 was found to be 0.8 nM.

By Kd is commonly meant the free concentration of one partner at which half of the binding sites on the other are occupied at equilibrium, for simple one-to-one binding. A higher Kd goes with weaker binding. Broadly, the koff is a measure of how fast the partners let go of each other. Low values mean a long-lived complex, high ones a short-lived complex. As a reminder, the kon is the rate constant with which the complex forms. Read a high kon as fast association. The term IC50 denotes the concentration that inhibits the measured activity by half.

The record behind these values is patent US20200079850A1 (SUTRO BIOPHARMA, published 2020).
